Assay results: PubChem BioAssay AID720707 (National Center for Advancing Translational Sciences (NCATS), 2013)
In all, about 360,000 compounds went through this assay and about 270 (0.075%) were called active. The shares of active, inactive and inconclusive entries below differ from those in the screen. Calls come from the whole dose curve; as a rule, active = well fitted activation curve with a large enough effect; inconclusive = small, poorly fitted or top-dose-only effect; inactive = no such curve, though single readings can be large or run the other way. No potency is given beside an inconclusive call; the fits are too rough.
Note: nearly all actives have a fitted effect of over 60% in size.
Potency is the fitted concentration of half-maximal effect; tags give direction and shape of the fitted curve.

What follows are compounds tested against Rap guanine nucleotide exchange factor 3 (Homo sapiens) (UniProt O95398) (assay: qHTS for Agonist of cAMP-regulated guanine nucleotide exchange factor 3 (EPAC1): primary screen). Settings: biochemical assay; activation: at 154 µM (top of the series), 100% = response to 6.5 mM cAMP.
Sequence of UniProt O95398 (O95398 whole entry, looked up): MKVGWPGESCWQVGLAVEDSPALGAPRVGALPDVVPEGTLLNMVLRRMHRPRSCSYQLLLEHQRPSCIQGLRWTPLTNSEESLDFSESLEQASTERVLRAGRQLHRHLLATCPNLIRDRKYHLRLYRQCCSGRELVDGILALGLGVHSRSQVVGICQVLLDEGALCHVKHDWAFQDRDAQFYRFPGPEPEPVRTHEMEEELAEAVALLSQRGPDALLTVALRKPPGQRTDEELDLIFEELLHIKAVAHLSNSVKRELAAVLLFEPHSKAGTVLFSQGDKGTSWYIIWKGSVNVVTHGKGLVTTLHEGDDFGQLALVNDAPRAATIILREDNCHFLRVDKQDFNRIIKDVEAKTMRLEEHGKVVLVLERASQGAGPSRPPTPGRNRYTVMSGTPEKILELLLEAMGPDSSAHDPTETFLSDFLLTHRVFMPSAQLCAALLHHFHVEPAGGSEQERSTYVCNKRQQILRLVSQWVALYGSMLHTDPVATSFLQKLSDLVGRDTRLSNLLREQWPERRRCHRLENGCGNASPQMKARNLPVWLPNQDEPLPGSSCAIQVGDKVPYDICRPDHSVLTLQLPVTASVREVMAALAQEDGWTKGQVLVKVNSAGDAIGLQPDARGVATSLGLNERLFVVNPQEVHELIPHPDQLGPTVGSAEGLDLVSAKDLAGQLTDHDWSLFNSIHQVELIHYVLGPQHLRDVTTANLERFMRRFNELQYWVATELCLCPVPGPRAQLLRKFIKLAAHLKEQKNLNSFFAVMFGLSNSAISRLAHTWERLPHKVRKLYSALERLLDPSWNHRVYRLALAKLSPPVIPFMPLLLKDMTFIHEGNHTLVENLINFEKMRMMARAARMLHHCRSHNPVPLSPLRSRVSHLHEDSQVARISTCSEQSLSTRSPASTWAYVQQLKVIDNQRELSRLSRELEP
Procedure, shortened: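 EPAC1 100 nM, Rap1B–BODIPY-GDP 250 nM, unlabeled GDP 50 uM; compound titration; 5 min RT; kinetic read ex480/em540 at 5-min intervals ×30 min; data normalized to 6.5 mM cAMP agonist control.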
With `CN(Cc1ccccn1)Cc1cn(Cc2ccccc2)nc1-c1ccc2c(c1)OCO2` the Potency was inconclusive [activator, single point].
`O=C1c2[nH]nc(-c3ccccc3O)c2C(c2ccc(F)cc2)N1Cc1ccco1` (stereo not given) was tested, and the Potency was inconclusive [activator, single point].
`Cc1ccc(N(Cc2ccccc2)C(=O)c2ccc(S(=O)(=O)N3CCOCC3)cc2)cc1` was tested, and the Potency was inconclusive [activator, full curve, poor fit].
In the case of `CCOc1cc(/C=C2\SC(=Nc3ccc(CC)cc3)NC2=O)ccc1OCC(=O)O`, the Potency is reported as inconclusive [activator, partial curve].
For `Cc1ccc(N(CCC#N)C(=O)COC(=O)c2ccccc2SCC(=O)N2CCCC2)cc1`, the Potency was inconclusive [activator, single point].
For `O=C1/C(=C/c2cccs2)N=C(c2cccs2)N1Nc1ccccc1`, the Potency was inconclusive [activator, single point].
`CCc1ccccc1Nc1nc(N)nc(COC(=O)CCNS(=O)(=O)c2ccccc2)n1` was tested, and the Potency was inconclusive [activator, single point].
`S=C(Nc1cc(Cl)ccc1Cl)Nn1cnnc1` was tested, and the “activation” value was inactive: -4.52%.
For `CCOC(=O)c1c(C)[nH]c(N=Nc2ccccc2C)c1C`, the Potency was inconclusive [activator, single point].
`Cc1cccc(C)c1NC(=O)CN1C(=O)S/C(=C\c2cccn2-c2cccc(C(=O)O)c2)C1=O` was tested, and the Potency was inconclusive [activator, partial curve].
With `CN1CCN(CC(O)COc2ccccc2)CC1` (stereo not given) the Potency was inconclusive [activator, partial curve].
For `O=C(Nc1ccccn1)c1cccc(S(=O)(=O)N2CCc3ccccc3C2)c1`, the Potency was inconclusive [activator, single point].
`O=C(O)C(NC(=O)c1ccccc1)=C(Cl)Cl` was tested, and the “activation” value was inactive: 0%.
With `CC1CN(c2ccccc2)NC1=O` (stereo not given) the “activation” value was inactive: -3.2%.
For `COc1cccc(NC(=O)Cn2cc(C(=O)C3CC3)c3ccccc32)c1`, the Potency was inconclusive [activator, partial curve, poor fit].
`O=C(NCCc1c[nH]c2ccccc12)C(=O)Nc1cc2c3c(c1)CC(=O)N3CCC2` was tested, and the Potency was inconclusive [activator, single point].
In the case of `COC(=O)c1cc(NC(=O)COC(=O)CN2C(=O)C3CC=CCC3C2=O)cc(C(=O)OC)c1` (stereo not given), the Potency is reported as inconclusive [activator, single point].
With `COc1ccccc1CC(=O)N(CCC1=CCCCC1)c1c(N)n(Cc2ccccc2)c(=O)[nH]c1=O` the Potency was inconclusive [activator, full curve, poor fit].
For `CNc1snc(C)c1C(=O)OCC(=O)Nc1ccc(C)cc1F`, the Potency was active: 56.2 µM.
For `COc1ccc(C(=O)NCC(C)(C)SCc2c(C)cc(C)cc2C)cc1`, the Potency was inconclusive [activator, partial curve].
`N#Cc1cccc(NC(=O)CSc2ccc3c4c(cccc24)C(=O)c2ccccc2-3)c1` was tested, and the Potency was inconclusive [activator, partial curve].
`CC(=O)c1cc(CN2CCC(C(=O)Nc3cccc(-c4cscn4)c3)CC2)cs1` was tested, and the Potency was inconclusive [activator, full curve, poor fit].
With `COc1ccc(S(=O)(=O)Nc2ccc(C)cc2)cc1N(C)S(=O)(=O)c1ccc(Cl)cc1` the Potency was inconclusive [activator, partial curve].
For `c1ccc(-c2ccc3ncccc3n2)cc1`, the “activation” value was inactive: 8.69%.
In the case of `Nc1[nH]c(C(=O)c2ccccc2)c(-c2ccccc2C(F)(F)F)c1C(=O)NCCc1cccs1`, the Potency is reported as inconclusive [activator, single point].
For `CC(=O)c1c(C)[nH]c(C(=O)Nc2ccc(Cl)cc2)c1C`, the “activation” value was inactive: -1.92%.
In the case of `Nc1ccc2c(c1)[nH]c(=O)c1cc(N)ccc12`, the “activation” value is reported as inactive: 4.65%.
`CN(C)S(=O)(=O)c1ccc(N2CCCC2)c(C(=O)NCC2COc3ccccc3O2)c1` (stereo not given) was tested, and the Potency was inconclusive [activator, full curve, poor fit].
With `COc1ccc(NC(=O)CN(C)C(=O)c2cc(-c3ccccc3)nc3ccccc23)cc1` the Potency was inconclusive [activator, single point].
`CC(=O)NC(Cc1cccc(F)c1)C(=O)NC1CCN(C(=O)Nc2ccc(C)cc2)CC1` (stereo not given) was tested, and the “activation” value was inactive: -5.37%.
With `C=CCN(c1ccccc1)S(=O)(=O)c1cccc(C(=O)N2CC(C)CC(C)C2)c1` (stereo not given) the Potency was inconclusive [activator, single point].
`Fc1cc(F)c(F)c(SCn2cc(Br)cn2)c1F` was tested, and the Potency was inconclusive [activator, full curve, poor fit].
In the case of `Cc1c(C(=O)O)sc2c1c(=O)n(Cc1ccccc1)c(=O)n2C`, the Potency is reported as inconclusive [activator, single point].
`CCOC(=O)C(C(=O)OCC)c1cc(Br)c2noc3c2c1C(=O)c1ccccc1-3` was tested, and the Potency was inconclusive [activator, single point].
In the case of `COc1ccc(CN2CCN(C(=O)c3ccc(S(=O)(=O)N4CCCCCC4)cc3)CC2)cc1`, the activation is reported as inconclusive: 32.4% [activator].
`O=C(CSc1nc(-c2ccccc2)c(-c2ccccc2)[nH]1)Nc1nccs1` was tested, and the Potency was inconclusive [activator, partial curve].
With `COc1ccc(S(=O)(=O)NNC(=S)NCCc2ccccc2)c(OC)c1` the Potency was inconclusive [activator, full curve, poor fit].
`CN(Cc1ccccc1)S(=O)(=O)c1ccc(Cl)c(C(=O)NCc2ccncc2)c1` was tested, and the Potency was inconclusive [activator, full curve].
For `c1ccc2c(c1)nc(N1CCOCC1)c1c3ccccc3[nH]c21`, the “activation” value was inactive: 8.05%.
`CN(CC(=O)Nc1ccc(F)cc1)C(=O)COC(=O)C1CCN(c2ccc(C(F)(F)F)cn2)CC1` was tested, and the Potency was active: 100 µM.
`O=C(c1ccccc1)c1ccc(O)cc1O` was tested, and the Potency was active: 100 µM.
With `COc1ccc(C(=O)COC(=O)c2ccc(Cl)nc2)c(OC)c1` the Potency was inconclusive [activator, partial curve, poor fit].
`CCOC(=O)C1Nc2ccccc2C2C(O)C(O)CC12` (stereo not given) was tested, and the Potency was inconclusive [activator, full curve, poor fit].
In the case of `Cc1sc(NC(=O)C2=COCCO2)nc1-c1ccc(Cl)cc1`, the Potency is reported as inconclusive [activator, partial curve].
With `O=C(CC1SC(N2CCCC2)=NC1=O)Nc1ccc(C(=O)N2CCN(c3cccc(Cl)c3)CC2)cc1` (stereo not given) the Potency was inconclusive [activator, partial curve].
With `O=C(CCNC(=O)c1ccccc1Cl)NCC(c1ccc(F)cc1)N1CCOCC1` (stereo not given) the Potency was inconclusive [activator, single point].
For `NCCOc1ccccc1Cc1ccccc1`, the Potency was inconclusive [activator, partial curve].
With `Cc1ccc(S(=O)(=O)Nc2ccc(O)c(S(=O)(=O)c3ccc(C)cc3)c2)cc1` the Potency was inconclusive [activator, single point].
In the case of `COc1cc(Cl)c(C)cc1NC(=O)CSc1ccc(C)cc1`, the “activation” value is reported as inactive: 8.95%.
`CC(=O)Nc1ccc(S(=O)(=O)NCCC(=O)Nc2cc(C)ccn2)cc1` was tested, and the Potency was inconclusive [activator, single point].
`CC1CCC2(CC1)NC(=O)N(NC(=O)CCl)C2=O` (stereo not given) was tested, and the “activation” value was inactive: -0.441%.
For `COc1ccccc1-c1cc(C(=O)NCc2ccc(F)cc2)no1`, the Potency was inconclusive [activator, partial curve].
For `CCN1CCN(c2ccc(S(=O)(=O)N3CCCCC3)cc2NC(=O)c2cccc(C(F)(F)F)c2)CC1`, the Potency was inconclusive [activator, single point].
`N#Cc1c(C(F)(F)F)cc(-c2ccccc2)nc1SCc1nc(N)nc(N2CCOCC2)n1` was tested, and the Potency was inconclusive [activator, single point].
For `CCN(CC)c1ccc2cc(-c3nnc(-c4ccccc4)o3)c(=O)oc2c1`, the Potency was inconclusive [activator, partial curve, poor fit].
With `COc1ccc(-c2cc(C(=O)N3CCN(c4cccc(C)c4C)CC3)c3ccccc3n2)cc1OC` the Potency was inconclusive [activator, partial curve, poor fit].
For `Cc1ccc(S(=O)(=O)NCc2ccccc2)cc1C(=O)NCC1CCCO1` (stereo not given), the Potency was inconclusive [activator, partial curve, poor fit].
In the case of `O=C(NCCCN1CCN(CCCNC(=O)c2cccc(Cl)c2)CC1)c1cccc(Cl)c1`, the “activation” value is reported as inactive: 3.35%.
`CC(=Cc1ccccc1)C=C1SC(=S)N(CCCC(=O)Nc2ccc(C(=O)O)cc2)C1=O` was tested, and the Potency was inconclusive [activator, partial curve].
For `CC(Oc1ccc(Br)cc1)C(=O)NCC(c1cccs1)N1CCOCC1` (stereo not given), the Potency was inconclusive [activator, single point].
`O=C(NC(=S)NCc1ccncc1)c1ccccc1` was tested, and the “activation” value was inactive: 7.75%.
With `COc1ccccc1NC(=O)Nc1nc(CC(=O)Nc2ccc(N(C)C)cc2)cs1` the Potency was inconclusive [activator, single point].
With `COC(=O)c1sccc1NS(=O)(=O)c1ccccc1[N+](=O)[O-]` the Potency was inconclusive [activator, single point].
For `CC(C)Sc1nc2c(cnn2-c2ccc(F)cc2)c(=O)[nH]1`, the Potency was inconclusive [activator, partial curve, poor fit].
With `N#C/C(=C/c1ccc(N2CCCCC2)o1)C(=O)Nc1ccc(Cl)cc1` the Potency was active: 100 µM.
